“And” between values parts separate entries of the source, which are not always exact repeats. Equal entries are not always repeated. Out of some 420,000 compounds screened, about 50,000 (12%) were called active. This list was built around the results that the source calls inconclusive (neither active nor inactive); the mix of calls is not that of the screen. Calls follow the shape of the dose curve; as a rule, active = well fitted inhibition curve with a large enough effect; inconclusive = small, poorly fitted or top-dose-only effect; inactive = flat fitted curve, though single readings scatter. A potency beside an inconclusive call is a rough fit, not a confirmed value.
Assay: qHTS for Inhibitors of human tyrosyl-DNA phosphodiesterase 1 (TDP1): qHTS in cells in presence of CPT; also: nearly all actives have a fitted effect of over 55% in size
Settings: chicken DT40 Tdp1-/-;hTDP1 cells + 20 nM CPT, ATP luminescence, 48 h; activity change, negative = growth inhibition: at 46.2 µM (top of the series) unless noted
Method in brief: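 Chicken DT40 Tdp1-/- cells complemented with human TDP1, 400 cells/well, exposed to compounds plus 20 nM camptothecin for at least 48 h at 37 C; viability read as ATP content by CellTiter-Glo luminescence.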
% is scaled to controls: 0 for no effect and ±100 for the full control effect; potency is read from the fitted curve at half-maximal effect; tags tell the direction and shape of the fitted curve.

Which Potency does the source give for `CCC(Cc1ccccc1)NC(=O)c1oc(=O)c2ccccc2c1-c1ccccc1` (stereo unspecified) here?
Its Potency is inconclusive: 29.1 µM [inhibitor, single point].

With `CC1CN(C(=O)COC(=O)[C@@H](NC(=O)c2ccccc2Cl)C(C)C)CC(C)O1` (stereo partly specified) as the compound, how does the activity change, negative = growth inhibition read?
Its activity change, negative = growth inhibition is inconclusive: -33.1% [inhibitor].

Which Potency does the source give for `CCCSc1cc(N2CCN(C)CC2)nc(-c2ccc(OC)cc2)n1` here?
The Potency was inconclusive: 23.1 µM [inhibitor, single point].

Which activity change, negative = growth inhibition does the source give for `COc1cccc(C(C(=O)NC(C)(C)C)N(C(=O)CCC(=O)Nc2cc(C)on2)C(C)(C)C)c1OC` (stereo unspecified) here?
Its activity change, negative = growth inhibition is inconclusive: -32.3% [inhibitor].

With `Cc1cccc(C)c1OCCCCn1c(C2CC(=O)N(c3ccc(F)cc3)C2)nc2ccccc21` (stereo unspecified) as the compound, how does the Potency read?
Its Potency is active: 13 µM.

For `CC(C)(C)C(=O)Nc1ccccc1C(=O)OCC(=O)c1ccc2c(c1)OCCO2`, which Potency is on record?
Its Potency is inconclusive: 20.6 µM [inhibitor, single point].

With `CC(=O)Nc1ccc(NC(=S)NC(=O)/C=C/c2ccco2)cc1` as the compound, how does the Potency read?
Its Potency is inconclusive: 29.1 µM [inhibitor, single point].

Which Potency does the source give for `C[C@@H](C(=O)OCC(=O)c1ccc(F)c(F)c1)N1C(=O)C2CCCCC2C1=O` (stereo partly specified) here?
The Potency was “inactive”.

For `CC(=O)c1ccc(N2CCN(C(=O)[C@H](C)NC(=O)c3ccccc3Cl)CC2)cc1`, which Potency is on record?
Its Potency is inconclusive: 10.3 µM [inhibitor, partial curve].

For `CCc1ccc(NC(=O)N2CCN(Cc3cc(=O)n4nc(-c5ccccc5OC)sc4n3)CC2)cc1`, which Potency is on record?
Its Potency is inconclusive: 13 µM [inhibitor, partial curve].

For `CCOc1cc(C=NNC(=O)N(c2ccccc2)c2ccccc2)ccc1O`, which Potency is on record?
Its Potency is active: 29.1 µM.

Which Potency does the source give for `O=[N+]([O-])c1cccc(/C=N/N2CCN(c3ccccn3)CC2)c1` here?
The Potency was inconclusive: 16.4 µM [inhibitor, single point].

For `CCn1c(=N)c(C(=O)NCc2cccnc2)cc2c(=O)n3cc(C)ccc3nc21`, which Potency is on record?
Its Potency is “inactive”.

For `CC(=O)c1c(C)[nH]c(C(=O)OCC(=O)Nc2c(C)cccc2C)c1C`, which Potency is on record?
Its Potency is active: 20.6 µM.

Which Potency does the source give for `Cc1ccc(-n2nc3c(c2NC(=O)/C=C\c2ccc4c(c2)OCO4)CSC3)c(C)c1` here?
The Potency was “inactive”.

With `Cc1c(C(=O)N2CCCCC2)sc(NC(=O)C23CC4CC(CC(C4)C2)C3)c1C#N` as the compound, how does the Potency read?
The Potency was inconclusive: 25.9 µM [inhibitor, single point].

With `O=S(=O)(NCC(c1ccco1)N1CCN(c2ccc(F)cc2)CC1)c1ccccc1` (stereo unspecified) as the compound, how does the Potency read?
The Potency was inconclusive: 29.1 µM [inhibitor, single point].

Which Potency does the source give for `O=S(=O)(Nc1cccc(-c2cn3c(n2)SCC3)c1)c1ccccc1F` here?
Its Potency is “inactive”.

With `O=C1CC(N2CCN(Cc3ccccc3)CC2)C(=O)N1CCc1ccccc1` (stereo unspecified) as the compound, how does the Potency read?
The Potency was inconclusive: 25.9 µM [inhibitor, single point].

For `CSCCC(NC(=O)COc1ccccc1)C(=O)N1CCN(c2ccccc2O)CC1` (stereo unspecified), which Potency is on record?
Its Potency is “inactive”.

For `O=C1CC(c2cc(F)ccc2F)c2cc3c(cc2N1)CCC3` (stereo unspecified), which Potency is on record?
The Potency was active: 2.59 µM.

For `COC(=O)c1cc2occc2n1CC(=O)Nc1cccc(SC)c1`, which Potency is on record?
The Potency was “inactive”.

For `Cc1nn(C)c(C(=O)N/N=C/c2ccccn2)c1[N+](=O)[O-]`, which Potency is on record?
Its Potency is “inactive”.

Which Potency does the source give for `Cn1c(-c2cccc(OCc3ccccc3)c2)nc2c1c(=O)[nH]c(=O)n2Cc1ccccc1` here?
Its Potency is active: 20.6 µM.

For `COc1ccc(-c2nc(CSCC(=O)NCCc3ccc(C)cc3)c(C)o2)cc1OC`, which Potency is on record?
The Potency was active: 16.4 µM.

With `O=C(Nn1c(Cc2cccs2)nc2ccccc2c1=O)c1cccs1` as the compound, how does the Potency read?
Its Potency is inconclusive: 20 µM [inhibitor, single point].

For `Cc1[nH]c(C)c2c(=O)[nH]ncc12`, which Potency is on record?
The Potency was “inactive”.

Which Potency does the source give for `O=C(Cc1cccs1)NCCSc1c(-c2ccc(Cl)cc2)[nH]c2ccccc12` here?
Its Potency is active: 18.4 µM.

Which Potency does the source give for `Cc1c(C(=O)O)oc2ccc(S(=O)(=O)NCCC3=CCCCC3)cc12` here?
The Potency was “inactive”.

Which Potency does the source give for `Brc1cccc(C2CC(c3ccccc3)n3nnnc3N2)c1` (stereo unspecified) here?
Its Potency is “inactive”.

Which Potency does the source give for `Cc1cc2nc(-c3ccc(Cl)cc3)c(Cc3cccc(F)c3)n2c(C)c1Br` here?
Its Potency is inconclusive: 14.6 µM [inhibitor, partial curve].

With `Cc1onc(-c2ccccc2)c1CNC(=O)Nc1ccc(F)cc1F` as the compound, how does the Potency read?
The Potency was inconclusive: 29.1 µM [inhibitor, single point].

Which Potency does the source give for `O=C1C=C(N2CCN(c3ccccn3)CC2)C(=O)c2c(O)ccc(O)c21` here?
The Potency was active: 1.46 µM.

For `COc1cc(N=Nc2ccc(Br)cc2)cc(C=O)c1O`, which Potency is on record?
The Potency was active: 5.17 µM.

With `CCCCC[n+]1cccc2c3ccccc3ccc21` as the compound, how does the Potency read?
Its Potency is active: 0.517 µM.

With `COc1ccccc1CNC(=O)C(=O)NCCC1CCCCN1S(=O)(=O)c1cccs1` (stereo unspecified) as the compound, how does the Potency read?
The Potency was inconclusive: 18.4 µM [inhibitor, single point].

With `O=C1ON=C(c2ccccc2)/C1=C/c1cccnc1` as the compound, how does the Potency read?
Its Potency is “inactive”.

Which Potency does the source give for `CCCCCC1CC(=O)N(Cc2ccccc2)C(=O)N1` (stereo unspecified) here?
Its Potency is “inactive”.

With `O=C(Cc1nc2ccccc2[nH]c1=O)c1ccc(Cl)cc1` as the compound, how does the Potency read?
Its Potency is “inactive”.

With `CC(=O)Nc1ccc(-c2ccnc3c2CC(C(=O)NCc2ccc(N4CCN(C)CC4)cc2)O3)cc1` (stereo unspecified) as the compound, how does the Potency read?
The Potency was inconclusive: 20.6 µM [inhibitor, single point].

With `CCn1c(NC(=O)Nc2cccc(C)c2C)cc2sccc21` as the compound, how does the Potency read?
Its Potency is inconclusive: 6.51 µM [inhibitor, full curve, poor fit].

With `CCOc1ccc(CNC(=O)c2ccc(NC(=O)c3nsc4ccccc34)cc2)cc1` as the compound, how does the Potency read?
The Potency was inconclusive: 18.4 µM [inhibitor, single point].

With `COC(=O)C[C@H]1c2cc(C(F)(F)F)ccc2S(=O)(=O)N1C1CCCC1` as the compound, how does the Potency read?
The Potency was active: 23.1 µM.

With `Cc1c(C(=O)NCc2ccc(Cl)cc2)sc2nc3n(c(=O)c12)CCCC3` as the compound, how does the Potency read?
The Potency was inconclusive: 29.1 µM [inhibitor, single point].

With `CCc1noc2nc(C)n(CC(=O)O)c(=O)c12` as the compound, how does the Potency read?
The Potency was “inactive”.

Which activity change, negative = growth inhibition does the source give for `CCOC(=O)Cn1cc2c(c1-c1ccc(Cl)cc1)c(=O)n(C)c(=O)n2C` here?
The activity change, negative = growth inhibition was inconclusive: -30.4% [inhibitor].

For `CN(C(=O)CSc1nc2ccccc2n1CC(=O)NCc1ccc(F)cc1)c1ccc(F)cc1`, which Potency is on record?
The Potency was inconclusive: 20.6 µM [inhibitor, single point].

With `Cc1sc(NC(=O)C2CSC3(C)CCC(=O)N23)nc1-c1ccc(F)cc1` (stereo unspecified) as the compound, how does the Potency read?
The Potency was active: 14.6 µM.

For `Cc1ccc(NC2CCCCC2NS(=O)(=O)c2ccc(Cl)cc2)cc1` (stereo unspecified), which Potency is on record?
Its Potency is inconclusive: 29.1 µM [inhibitor, single point].

With `Cc1c(Br)c([N+](=O)[O-])nn1CC(=O)Nc1sc2c(c1C(=O)OC(C)C)CCC(C)C2` (stereo unspecified) as the compound, how does the Potency read?
The Potency was inconclusive: 18.4 µM [inhibitor, single point].

With `O=C(NNC(=O)C12CC3CC(CC(C3)C1)C2)c1cnccn1` as the compound, how does the Potency read?
Its Potency is inconclusive: 0.731 µM [inhibitor, full curve, poor fit].

For `CCS(=O)(=O)c1ccccc1C(=O)N(Cc1cccnc1)c1nc2cc(C)c(C)cc2s1`, which Potency is on record?
The Potency was inconclusive: 29.1 µM [inhibitor, single point].

With `COc1cc(-c2cc3nc(NCCOc4ccccc4)ccn3n2)cc(OC)c1OC` as the compound, how does the Potency read?
Its Potency is active: 2.59 µM.

With `O=C(NCc1ccccn1)C(=O)NCC1OCCN1S(=O)(=O)c1ccc(Br)cc1` (stereo unspecified) as the compound, how does the Potency read?
Its Potency is “inactive”.

For `CCC(c1nnnn1-c1ccc2c(c1)OCCO2)N1CCN(c2ccccc2OC)CC1` (stereo unspecified), which Potency is on record?
Its Potency is inconclusive: 23.1 µM [inhibitor, single point].

Which Potency does the source give for `CCCC(Oc1ccc(Br)cc1)c1nc2c3cc(OC)c(OC)cc3nc(=S)n2[nH]1` (stereo unspecified) here?
Its Potency is inconclusive: 25.9 µM [inhibitor, single point].

For `COc1ccc(-c2nc3n(n2)C(c2ccccc2F)C(C(=O)Nc2cccnc2)=C(C)N3)cc1OC` (stereo unspecified), which Potency is on record?
Its Potency is inconclusive: 29.1 µM [inhibitor, single point].

For `CCOC(=O)c1sc(Nc2ccc(C)cc2C)nc1C`, which Potency is on record?
The Potency was inconclusive: 20 µM [inhibitor, single point].

With `CCN1CCN(C(=S)Nc2ccc(Cl)cc2Cl)CC1` as the compound, how does the Potency read?
The Potency was inconclusive: 29.1 µM [inhibitor, single point].

Which Potency does the source give for `Cc1ccc(CNc2ncnc3c2c(-c2ccccc2)cn3-c2cccc(Cl)c2)cc1` here?
Its Potency is inconclusive: 8.2 µM [inhibitor, single point].

Which Potency does the source give for `CCOC(=O)C(=CNc1ccc(S(N)(=O)=O)cc1)C(=O)OCC` here?
Its Potency is “inactive”.

For `Cc1ccccc1OCC(O)Cn1c(=N)n(CCN2CCOCC2)c2ccccc21` (stereo unspecified), which Potency is on record?
Its Potency is inconclusive: 16.4 µM [inhibitor, partial curve] and inconclusive: 25.9 µM [inhibitor, single point].

For `O=C(N/N=C/c1ccccc1O)C1CC(=O)N(c2ccc(F)cc2)C1` (stereo unspecified), which Potency is on record?
Its Potency is active: 3.26 µM.

For `Cc1ccc(-c2noc(CN(C3CCCCC3)S(=O)(=O)c3ccc(Cl)cc3)n2)cc1`, which Potency is on record?
Its Potency is active: 25.9 µM.

For `CC(=O)c1cccc(NC(=O)C(Sc2ncnc3ccccc23)c2ccccc2)c1` (stereo unspecified), which Potency is on record?
The Potency was inconclusive: 29.1 µM [inhibitor, single point].

For `COc1ccc(N2CCN(C(=O)COC(=O)CCOc3cc(C)ccc3C)CC2)cc1`, which activity change, negative = growth inhibition is on record?
Its activity change, negative = growth inhibition is inconclusive: -34.1% [inhibitor].

Which Potency does the source give for `CCOc1ccccc1N(C(=O)Cn1nnnc1-c1ccc(C)o1)C(CC)C(=O)NC(C)(C)C` (stereo unspecified) here?
Its Potency is inconclusive: 29.1 µM [inhibitor, single point].

Which Potency does the source give for `CCn1c(SCC(=O)Nc2ccccc2)nnc1C1CCCCC1` here?
The Potency was inconclusive: 29.1 µM [inhibitor, single point].

With `COc1ccc(C(C)(C)C)cc1NC(=O)COc1ccc(-c2nnco2)cc1` as the compound, how does the Potency read?
Its Potency is inconclusive: 7.31 µM [inhibitor, partial curve].

For `COc1ccc(OC)c(NC(=O)COC(=O)/C=C/c2c(C)nn(C3CCS(=O)(=O)C3)c2Cl)c1` (stereo unspecified), which Potency is on record?
Its Potency is inconclusive: 25.9 µM [inhibitor, single point].

With `CC(c1nccs1)N(C)c1nc2nonc2nc1N(C)C` (stereo unspecified) as the compound, how does the Potency read?
The Potency was “inactive”.

Reference: PubChem BioAssay AID686979 (National Center for Advancing Translational Sciences (NCATS), 2013)
